Results as given in PubChem BioAssay AID485367 (National Center for Advancing Translational Sciences (NCATS), 2010).
Out of some 330,000 compounds screened, about 560 (0.17%) were called active. The inconclusive results got no clear call from the source; some entries with a clear call stand among them for comparison. Calls follow the shape of the dose curve; as a rule, active = well fitted inhibition curve with a large enough effect; inconclusive = small, poorly fitted or top-dose-only effect, or effect the other way; inactive = flat fitted curve, though single readings scatter. No potency is given beside an inconclusive call; the fits are too rough.

What follows are molecules tested against ATP-dependent 6-phosphofructokinase (Trypanosoma brucei brucei) (UniProt O15648) (assay: qHTS Assay to Find Inhibitors of T. brucei phosphofructokinase). Settings: T. brucei PFK, ADP-Glo luminescence; series mostly up to 57.5 µM.
Method in brief: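 Compounds were pin-transferred as a titration series up to 57 uM into substrate buffer (0.5 mM F6P, 0.1 mM ATP, pH 8.0), then 1.25 nM PFK was added and reactions ran 45 min before ADP-Glo detection.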
Also: nearly all actives have a fitted effect of over 60% in size.
Potency is read from the fitted curve at half-maximal effect; tags tell the direction and shape of the fitted curve.

UniProt O15648, sequence (O15648 whole entry, looked up): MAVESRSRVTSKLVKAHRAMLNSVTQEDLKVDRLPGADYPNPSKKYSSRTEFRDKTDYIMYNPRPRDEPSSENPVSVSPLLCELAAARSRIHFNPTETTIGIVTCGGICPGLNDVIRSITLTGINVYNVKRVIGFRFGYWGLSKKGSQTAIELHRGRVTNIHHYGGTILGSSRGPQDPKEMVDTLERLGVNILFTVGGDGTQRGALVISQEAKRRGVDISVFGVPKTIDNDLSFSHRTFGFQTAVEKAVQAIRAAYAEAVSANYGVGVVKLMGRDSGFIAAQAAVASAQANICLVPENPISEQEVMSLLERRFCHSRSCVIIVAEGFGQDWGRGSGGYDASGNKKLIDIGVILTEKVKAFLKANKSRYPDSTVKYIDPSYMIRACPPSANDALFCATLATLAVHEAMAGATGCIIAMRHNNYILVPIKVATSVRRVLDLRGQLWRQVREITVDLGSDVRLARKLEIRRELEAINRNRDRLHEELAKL

SMILES	Potency
Cc1cc(-n2c(=O)c(C#N)cc3c(=O)n4ccccc4nc32)no1	inconclusive [falling, single point]
CSc1ccc(CN(C)C(=O)C(Cc2ccccc2)NC(=O)c2ccccc2)cc1 (stereo not given)	inconclusive [falling, single point]
Cc1cccc(NC(=O)COc2ccc(/C=N\n3cnnc3)cc2)c1	inconclusive [falling, partial curve]
O=C(CC1SC(=O)N(c2ccccc2)C1=O)Nc1ccc(Cl)cc1 (stereo not given)	inconclusive [falling, single point]
CC1(C)c2ccccc2N2CC(=O)NC21/C=C/c1ccco1 (stereo not given)	inconclusive [falling, partial curve]
C=CCN1C=CC(=C/C=C(/C#N)C(=O)OCC)C=C1	inactive
CC[N+](CC)(CC)CCCCOc1ccc2c(c1)C(=O)c1cc(OCCCC[N+](CC)(CC)CC)ccc1-2	inactive
CC1=NN(Cc2ccccc2)C(=O)/C1=C\c1ccc(N(C)C)cc1	inconclusive [falling, partial curve, poor fit]
O=C(CSc1nnnn1C1CC1)N1CCN(c2ccc(O)cc2)CC1	inconclusive [falling, full curve]
COC(=O)c1cc(-c2ccc(C)o2)nc2ccccc12	inconclusive [falling, single point]
Cc1cc(O)c(N)c(C)c1Cl	inconclusive [falling, partial curve]
O=C1C(=O)N(CCO)C(c2ccccc2[N+](=O)[O-])/C1=C(\O)c1ccccc1 (stereo not given)	inconclusive [falling, single point]
O=C(CN1C(=O)S/C(=C\c2cccs2)C1=O)Nc1ccc(O)c(C(=O)O)c1	inconclusive [activator, single point]
Cc1ccc(N2CC(C(=O)Nc3nc4ccc(S(C)(=O)=O)cc4s3)CC2=O)cc1 (stereo not given)	inconclusive [falling, single point]
O=C(COc1ccccc1Cl)Nc1ccccc1C(=O)Nc1cccc(C(=O)O)c1	inconclusive [falling, single point]
O=C(O)CC(c1cccc(O)c1)N1Cc2ccccc2C1=O (stereo not given)	inactive
COc1cc(/C=C2\C(=O)ON=C2c2ccccc2)cc(Cl)c1O	inactive
CCOC(=O)N1CCC(N2C(=O)c3ccc(C(=O)NCc4ccc(F)cc4)cc3C2=O)CC1	inconclusive [falling, single point]
Cc1cc(C)nc(Sc2nc(Nc3ccccc3)nc(Sc3nc(C)cc(C)n3)n2)n1	inactive
C/C(=N\NC(N)=O)c1cccc(Cl)c1	inconclusive [falling, full curve, poor fit]
CCOc1ccccc1NC(=O)COc1coc(CN2CCc3ccccc32)cc1=O	inconclusive [falling, partial curve]
COc1cc(-c2noc(C)c2/C=C/c2cccc([N+](=O)[O-])c2)cc(OC)c1OC	inactive
O=C1C2C3CCC(C3)C2C(=O)N1CNc1ccc(F)cc1 (stereo not given)	inconclusive [falling, single point]
CCOC(=O)NCc1ccc(Cl)c(Cl)c1	active: 30.1 µM

SMILES	Potency
C/C(=N\N=C\c1ccccc1F)c1nnn(-c2nonc2N)c1C	inactive
O=C(CCC(=O)N1CCOc2ccc(Cl)cc21)NCCCN1CCC(Cc2ccccc2)CC1	inconclusive [falling, partial curve]
CC1=NN(c2ccc(C)cc2)C(=O)/C1=C/c1ccc(-c2cc([N+](=O)[O-])ccc2O)o1	inconclusive [falling, single point]
NS(=O)(=O)c1ccc(NC(=S)NCc2ccc(F)cc2)cc1	active: 23.9 µM
O=C(COc1ccccc1Cl)Nc1ccc(C(=O)O)cc1NC(=O)COc1ccccc1Cl	inactive
Cc1cccc(/C=N\NC(=O)c2csnn2)c1	inconclusive [falling, single point]
CC1CCCCN1S(=O)(=O)c1ccc(C(=O)Nc2sccc2C(N)=O)cc1 (stereo not given)	inconclusive [activator, single point]
O=C1C=C(c2ccc3cc[nH]c3c2)C[C@@H](c2ccc3c(c2)OCO3)C1	inconclusive [falling, single point]
Cc1ccc(NC(=O)C2C(c3ccccc3)C=CC(c3ccccc3)C2C(=O)O)cc1 (stereo not given)	inconclusive [falling, single point]
COc1cc2oc(=O)cc(-c3cccc(-c4cccc(C)c4)c3)c2c(OC)c1OC	inactive
O=c1[nH]c(C(Cl)Cl)nc2sc3c(c12)CCN(Cc1ccccc1)C3	inconclusive [falling, full curve, poor fit]
CC(=O)c1cccc(Nc2ccc(-c3ccccc3F)nn2)c1	inactive
O=C(CCNc1ccc(F)c(Cl)c1)c1ccco1	inconclusive [falling, partial curve]
O=C(O)CC(NC(=O)CCC1CCCCC1)c1cc([N+](=O)[O-])ccc1Cl (stereo not given)	inconclusive [falling, single point]
CS(=O)(=O)c1ccc(N)c(SSc2cc(S(C)(=O)=O)ccc2N)c1	inconclusive [falling, partial curve]
CC(=O)NC(Cc1ccccc1C)C(=O)NC1CCN(c2ncccc2[N+](=O)[O-])CC1 (stereo not given)	inconclusive [falling, single point]
O=[N+]([O-])c1ccc(SCc2ccncc2)nc1	inconclusive [falling, single point]
CC(C)C(=O)N1CCN(c2ccc(NC(=O)c3ccco3)cc2Cl)CC1	inactive
CCC(O)c1cc2c(cc1NC(=O)c1ccc(C)cc1)OCCO2 (stereo not given)	inconclusive [falling, single point]
O=C1C=C(NC2CC2)C2(CCCCC2)O1	inconclusive [falling, single point]
CC(=O)c1ccc(-n2c(CCC(=O)O)ccc2-c2cccs2)cc1	inconclusive [activator, partial curve]
COc1cc(CN2CCC(n3nccc3NC(=O)c3ccc4c(c3)OCO4)CC2)ccc1O	inconclusive [falling, single point]
CC(C)OCCCNCC(O)c1ccccc1 (stereo not given)	inconclusive [activator, single point]
N#Cc1c(-c2ccncc2)c2c([nH]c1=S)CCCC2	inconclusive [falling, full curve]

SMILES	Potency
C=C(C)C(=O)Nc1cccc(C2=NOC3(C2)C[C@@H](C(N)=O)N(C(=O)c2ccc(Cl)cc2)C3)c1 (stereo not given in full)	active: 9.53 µM
COc1ccc(Cl)cc1NC(=S)N(Cc1ccc(C(=O)O)cc1)Cc1ccc(OC)c(OC)c1	inconclusive [falling, single point]
CCc1ccc(/C=N/NC(=O)c2cc(-c3ccccc3OC)nc3ccccc23)s1	inactive
COc1ccc(C(=O)Nc2cc(C(=O)c3ccccc3)c(C)oc2=O)cc1	inconclusive [falling, partial curve]
CCOc1cc(/C=C\[N+](=O)[O-])ccc1OCC(=O)Nc1ccccc1C	inconclusive [activator, partial curve]
O=C(Nc1ncc([N+](=O)[O-])s1)c1cccs1	inactive
O=C1OC(c2ccccc2)=C/C1=C/N1CCOCC1	inconclusive [falling, partial curve, poor fit]
C=C1c2cccc(O)c2C(=O)C2C(=O)[C@]3(O)C(=O)C(C(N)=O)C(=O)[C@@H](N(C)C)[C@@H]3[C@@H](O)[C@H]12 (stereo not given in full)	inconclusive [falling, partial curve]
CCN1CCN(C(=S)c2ccc(OCC(=O)NCc3ccccc3)cc2)CC1	inconclusive [falling, single point]
Cc1ccc(C(=O)N/C(=C/c2ccco2)C(=O)Nc2cccc(C(=O)O)c2)cc1	inconclusive [falling, single point]
CCc1ccccc1N1CSC2=C(C#N)C(c3cc(OC)c(OC)cc3OC)CC(=O)N2C1 (stereo not given)	inactive
CC(=O)SC(C[N+](=O)[O-])c1cn(C(C)=O)c2ccccc12 (stereo not given)	inconclusive [activator, partial curve]
Cc1cnc(C(=O)OCC(=O)Nc2sc3c(c2C#N)CCC3)cn1	inactive
O=c1nc(N2CCOCC2)ccn1-c1nc(-c2ccccc2)oc1-c1ccccc1	inconclusive [activator, single point]
C=CCNC(=O)Nc1ccc2nc(C)sc2c1	inactive
COc1ccc(CC(=O)NNS(=O)(=O)c2ccc([N+](=O)[O-])cc2)cc1OC	inactive
O=C(CN1C(=O)/C(=C2\SC(=S)N(CCS(=O)(=O)O)C2=O)c2ccccc21)Nc1cccc(Br)c1	active: 26.9 µM
COc1ccccc1NC(=O)C1(c2ccccc2)CCCC1	inconclusive [falling, single point]
Cn1cc(S(=O)(=O)Nc2ccc(Oc3ccccc3)cc2)c(=O)n(C)c1=O	inconclusive [activator, single point]
C=CCSc1nccc(-c2nn(-c3ccc(C)cc3)ccc2=O)n1	inactive
CC(CS(=O)(=O)c1ccc2c(c1)NC(=O)CS2)C(=O)NCc1ccccc1Cl (stereo not given)	active: 13.5 µM
Cc1ccc(C(=O)OCC(=O)c2ccc(CC(=O)N3CCOCC3)s2)cc1C	inconclusive [falling, single point]
